In all, about 310,000 compounds went through this assay and about 2,200 (0.71%) showed an effect of 50% or more. The effect is printed as a negative number. This is one part of the list.
target: human ether-à-go-go-related gene (hERG) potassium channel (human, UniProt Q12809); test: primary screen, population patch clamp on CHO cells stably expressing hERG
Sequence (Q12809 whole entry, looked up): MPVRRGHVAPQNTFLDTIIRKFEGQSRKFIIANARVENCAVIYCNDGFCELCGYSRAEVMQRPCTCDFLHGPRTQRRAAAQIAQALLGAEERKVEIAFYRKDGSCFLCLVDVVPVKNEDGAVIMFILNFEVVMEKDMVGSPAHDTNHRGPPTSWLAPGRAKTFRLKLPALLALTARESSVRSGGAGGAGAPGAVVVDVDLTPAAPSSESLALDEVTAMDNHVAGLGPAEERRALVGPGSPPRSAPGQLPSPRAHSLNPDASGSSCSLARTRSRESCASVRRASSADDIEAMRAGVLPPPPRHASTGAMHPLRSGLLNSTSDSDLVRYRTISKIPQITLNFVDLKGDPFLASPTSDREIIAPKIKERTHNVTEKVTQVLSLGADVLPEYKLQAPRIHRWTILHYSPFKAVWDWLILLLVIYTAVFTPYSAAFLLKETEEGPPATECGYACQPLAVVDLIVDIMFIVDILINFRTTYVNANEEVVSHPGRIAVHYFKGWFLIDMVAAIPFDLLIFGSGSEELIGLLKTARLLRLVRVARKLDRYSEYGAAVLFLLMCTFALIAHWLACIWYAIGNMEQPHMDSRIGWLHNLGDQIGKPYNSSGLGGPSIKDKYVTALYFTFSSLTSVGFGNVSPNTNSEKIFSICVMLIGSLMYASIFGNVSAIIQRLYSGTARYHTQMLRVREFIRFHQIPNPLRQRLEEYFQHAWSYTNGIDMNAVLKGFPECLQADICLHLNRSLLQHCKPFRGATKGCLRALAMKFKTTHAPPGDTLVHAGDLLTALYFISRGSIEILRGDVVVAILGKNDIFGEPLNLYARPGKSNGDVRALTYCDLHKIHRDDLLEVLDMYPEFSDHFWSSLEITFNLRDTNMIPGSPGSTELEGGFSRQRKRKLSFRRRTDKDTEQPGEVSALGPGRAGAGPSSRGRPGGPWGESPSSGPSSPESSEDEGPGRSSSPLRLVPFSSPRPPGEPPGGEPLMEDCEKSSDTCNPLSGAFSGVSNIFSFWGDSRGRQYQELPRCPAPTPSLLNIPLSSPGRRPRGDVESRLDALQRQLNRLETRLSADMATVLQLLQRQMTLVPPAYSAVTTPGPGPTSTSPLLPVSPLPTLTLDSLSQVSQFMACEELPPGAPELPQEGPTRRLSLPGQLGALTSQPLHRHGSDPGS

Compound | hERG current change (%, negative = inhibition) at 1uM [%]
CCOc1ccc(N2CC(C(=O)Nc3nnc(C4CCCCC4)s3)CC2=O)cc1 (centres unmarked) | -13.2
CCc1nnc(NC(=O)[C@@H](NC(=O)c2cccc(S(=O)(=O)N3CCOCC3)c2)C(C)C)s1 | -1.33
CC1CN(CC(=O)Nc2cccc(C(=O)Nc3cccc(C(F)(F)F)c3)c2)CC(C)O1 (centres unmarked) | -6.35
Cn1c(C(=O)NCCOc2ccccc2Cl)cc(=O)n(C)c1=O | 9.81
Cc1c(C(=O)OCC(=O)N(C)C2CCS(=O)(=O)C2)oc2ccc(Br)cc12 (centres unmarked) | -9.89
O=C(/C=C/c1ccc(S(=O)(=O)N2CCOCC2)cc1)NCc1ccccc1 | -2.19
CCn1c(COc2cccc(C)c2)nc2ccccc21 | 3.8
CN1CCC[C@H]1c1cccnc1.O=C(O)C(O)C(O)C(=O)O | 9.62
CCOc1ccc(C2NC(=O)NC(C)=C2C(=O)OCc2ccccc2)cc1 (centres unmarked) | 10.6
CCC(=O)Nc1nnc(-c2ccncc2)s1 | 19.6
COc1ccc2c(c1)cc1c(=O)n(CC(=O)NC(C)CCc3ccccc3)nc(C)n12 (centres unmarked) | 16.2
CC1CN(c2nc3c(c(=O)n(C)c(=O)n3C)n2Cc2c(Cl)cccc2Cl)CC(C)O1 (centres unmarked) | -1.22
CCOCc1nnc(NC(=O)CCC2CCCCC2)s1 | 12.8
Cn1cnnc1SCC(=O)OCN1C(=O)c2ccccc2C1=O | 7.64
Cc1nc(C2CCC3C4CCC5=CC(=O)CC[C@]5(C)C4CC[C@]23C)cs1 (some centres unmarked) | 16.6
CC1=C/C(=N\OC(=O)/C=C/c2ccccc2)C(C)=CC1=O | 6.8
COc1ccc(C2c3ccc4ccccc4c3Oc3ncn(CCCO)c(=N)c32)cc1OC (centres unmarked) | -5
COc1ccc(OC)c(C2Nc3nc4ccccc4n3C(C)=C2C(=O)Nc2ccc(C)cc2C)c1 (centres unmarked) | -5.3
CNC(=O)c1c(NC(=O)CCS(=O)(=O)c2ccc(Cl)cc2)sc2c1CCN(C(=O)OC)C2 | -5.93

Compound | hERG current change (%, negative = inhibition) at 1uM [%]
O=C(Nc1ccc(SC(F)F)cc1)C1CC(=O)N(Cc2ccccc2)C1 (centres unmarked) | -18.9
CCOc1ccccc1NC(=S)NCc1ccco1 | 14.2
CCc1ccc(-c2cc3c(=O)n(CC(=O)N4CCCCCC4)nc(C)n3n2)cc1 | 10.9
C=CCc1cccc(CNc2ccc(Br)cc2)c1O | 8.86
COc1ccc(NC(=O)CN2CCN(C(=O)N3CCOCC3)CC2)cc1 | 8.73
COc1ccc(C(C2C(=O)CC(C)(C)CC2=O)C2C(=O)CC(C)(C)CC2=O)cc1COCC(F)(F)F | -3.01
CC(C)N(Cc1ccccc1)C(=O)c1ccc2c(c1)OCO2 | 4.76
CC(CCn1cccn1)NC(=O)c1cc(COc2ccc(F)cc2Cl)on1 (centres unmarked) | 2.2
CN1C(=O)/C(=C/c2ccc(OCc3cccc(F)c3)cc2)NC1=S | 15.5
COCCCn1c(C23CC4CC(CC(C4)C2)C3)n[nH]c1=S | 12.8
C=CCc1cc(C=O)cc(OCC)c1OCc1ccc(Cl)cc1 | 18.5
CCN(CC1CCCN(CCc2cccc(OC)c2)C1)C(=O)c1ccoc1 (centres unmarked) | -14.5
COC(=O)NNC1=CC(=O)CC(C)(C)C1 | 15.1
O=[N+]([O-])c1ccccc1S(=O)(=O)Nc1nc2ccccc2s1 | -9.12
CC(C)Oc1ccc(S(=O)(=O)N2CCOCC2)cc1NC(=O)CC1CCCC1 | 1.28
Cc1ccc(C(NC(=O)N2CCCC2)C(Cl)Cl)cc1F (centres unmarked) | -7.77
COc1ccc(OC)c(NC(=O)c2nnn(CC(=O)Nc3ccc4c(c3)OCO4)c2N)c1 | 12.7
CCn1c(NC)cc(=O)n(C)c1=O | 13.9
CC(=O)Nc1ccc(NC(=O)CN2CCN(c3ccccn3)CC2)cc1 | 11.7

Compound | hERG current change (%, negative = inhibition) at 1uM [%]
COc1ccc(S(=O)(=O)N(C(=O)c2ccncc2)c2ccc3oc4c(c3c2)CCCC4)cc1 | 5.33
O=C1c2ccccc2C2=Nc3ccccc3SC(c3ccc(Cl)cc3)C12 (centres unmarked) | 10.9
Cc1ccccc1C(=O)N/N=C1/SCC(=O)N1Cc1ccccc1 | -1.25
Cc1cc2c3c(c1C)C(=O)C(=O)N3C(C)(C)CC2C (centres unmarked) | 9.63
CC(=O)c1ccccc1NC(=O)COC(=O)/C=C/c1ccc(OC(F)F)cc1 | 16
O=C(Cc1ccc(Cl)cc1)Nc1ccc(S(=O)(=O)Nc2cnc3ccccc3n2)cc1 | 17.3
Cc1ccccc1NC1=C(Cl)C(=O)N(C2CCCCC2)C1=O | 4.73
Cc1ccccc1C(=O)N1CCN(c2ccc(NC(=O)Cc3ccccc3)cc2)CC1 | 5.03
Cc1ccccc1Nc1nnc(SCC2CCCCO2)s1 (centres unmarked) | 4.14
Nc1c(C(=O)N2CCOCC2)sc2nc3c(cc12)CCC3 | 6.1
Cc1cccc(OCCSc2ncnc3nc[nH]c23)c1 | 16.8
CCC(=O)N1c2ccc(S(=O)(=O)CCC(=O)N3CCn4c3nc3ccccc34)cc2CC1C (centres unmarked) | 9.5
Cc1sc(NC(=O)c2cc(-c3ccccc3)nc3ccccc23)c(C(N)=O)c1C | 14.6
O=c1[nH]c2ccc(Cl)cc2c(-c2ccccc2)c1N1CCN(CCO)CC1 | -43
CCOc1ccc(NC(=S)N2CCCN(Cc3cc(C)ccc3C)C2)cc1 | -7.88
COc1ccc(N(CC(=O)NC2CCCC2)C(=O)CCC(=O)Nc2cc(C)on2)c(OC)c1 | 3.62
O=C(O)CCc1ccc(-c2ccc(Br)cc2)n1NC(=O)c1ccc([N+](=O)[O-])cc1 | 17.6
COc1ccc(Br)cc1/C=N/n1c(C)nnc1C | 6.84

Source: paper PMC4336329 (PLoS ONE, 2015)
